The other results are listed elsewhere or left out.
Legend:
Assay in all cases: glycan array binding signal (z-score within array); higher = stronger binding
Details in all cases: glycan notation: IUPAC condensed, linker removed
[1] = target: Neu5Ac(a2-3)Gal(b1-4)GlcNAc(b1-3)Gal(b1-4)GlcNAc(b1-3)Gal(b1-4)GlcNAc
Procedure, shortened: (§1)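 Columns mapping to the same glycan were averaged after glycan names were converted to IUPAC-condensed notation. The data come from 3228 arrays in the Consortium for Functional Glycomics database, limited to those with an available protein sequence. Binding is reported as a within-array Z-score averaged across arrays of one protein sequence and across linkers.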

[2] = target: Neu5Ac(a2-3)Gal(b1-4)GlcNAc(b1-3)Gal(b1-4)GlcNAc(b1-3)Gal(b1-4)GlcNAc(b1-2)Man(a1-3)[Neu5Ac(a2-3)Gal(b1-4)GlcNAc(b1-3)Gal(b1-4)GlcNAc(b1-3)Gal(b1-4)GlcNAc(b1-2)Man(a1-6)]GalNAc
Procedure, shortened: as §1

[3] = target: Neu5Ac(a2-3)Gal(b1-4)GlcNAc(b1-3)Gal(b1-4)GlcNAc(b1-3)GalNAc
Procedure, shortened: as §1

[4] = target: Neu5Ac(a2-3)Gal(b1-4)GlcNAc(b1-3)Gal(b1-4)GlcNAc(b1-3)[Neu5Ac(a2-3)Gal(b1-4)GlcNAc(b1-3)Gal(b1-4)GlcNAc(b1-6)]GalNAc
Procedure, shortened: as §1

[5] = target: Neu5Ac(a2-3)Gal(b1-4)GlcNAc(b1-3)Gal(b1-4)GlcNAc(b1-6)[Gal(b1-3)]GalNAc
Procedure, shortened: as §1

[6] = target: Neu5Ac(a2-3)Gal(b1-4)GlcNAc(b1-3)Gal(b1-4)[Fuc(a1-3)]GlcNAc
Procedure, shortened: as §1

[7] = target: Neu5Ac(a2-3)Gal(b1-4)GlcNAc(b1-3)GalNAc
Procedure, shortened: as §1

[8] = target: Neu5Ac(a2-3)Gal(b1-4)GlcNAc(b1-3)[Neu5Ac(a2-3)Gal(b1-4)GlcNAc(b1-6)]GalNAc
Procedure, shortened: as §1

[9] = target: Neu5Ac(a2-3)Gal(b1-4)GlcNAc(b1-6)GalNAc
Procedure, shortened: as §1

[10] = target: Neu5Ac(a2-3)Gal(b1-4)GlcNAc(b1-6)[Gal(b1-3)]GalNAc
Procedure, shortened: as §1

[11] = target: Neu5Ac(a2-3)Gal(b1-4)GlcNAc(b1-6)[Neu5Ac(a2-3)Gal(b1-3)]GalNAc
Procedure, shortened: as §1

[12] = target: Neu5Ac(a2-3)Gal(b1-4)GlcNAc6S
Procedure, shortened: as §1

[13] = target: Neu5Ac(a2-3)Gal(b1-4)[Fuc(a1-3)]GlcNAc
Procedure, shortened: as §1

[14] = target: Neu5Ac(a2-3)Gal(b1-4)[Fuc(a1-3)]GlcNAc(b1-2)Man
Procedure, shortened: as §1

[15] = target: Neu5Ac(a2-3)Gal(b1-4)[Fuc(a1-3)]GlcNAc(b1-3)Gal
Procedure, shortened: as §1

[16] = target: Neu5Ac(a2-3)Gal(b1-4)[Fuc(a1-3)]GlcNAc(b1-3)Gal(b1-4)GlcNAc
Procedure, shortened: as §1

[17] = target: Neu5Ac(a2-3)Gal(b1-4)[Fuc(a1-3)]GlcNAc(b1-3)Gal(b1-4)[Fuc(a1-3)]GlcNAc(b1-3)Gal(b1-4)[Fuc(a1-3)]GlcNAc
Procedure, shortened: as §1

[18] = target: Neu5Ac(a2-3)Gal(b1-4)[Fuc(a1-3)]GlcNAc(b1-3)GalNAc
Procedure, shortened: as §1

[19] = target: Neu5Ac(a2-3)Gal(b1-4)[Fuc(a1-3)]GlcNAc(b1-6)[Gal(b1-3)]GalNAc
Procedure, shortened: as §1

[20] = target: Neu5Ac(a2-3)Gal(b1-4)[Fuc(a1-3)]GlcNAc(b1-6)[Neu5Ac(a2-3)Gal(b1-3)]GalNAc
Procedure, shortened: as §1

[21] = target: Neu5Ac(a2-3)Gal(b1-4)[Fuc(a1-3)]GlcNAc6S
Procedure, shortened: as §1

[22] = target: Neu5Ac(a2-3)Gal6S(b1-4)GlcNAc
Procedure, shortened: as §1

[23] = target: Neu5Ac(a2-3)Gal6S(b1-4)[Fuc(a1-3)]GlcNAc
Procedure, shortened: as §1

[24] = target: Neu5Ac(a2-3)GalNAc
Procedure, shortened: as §1

[25] = target: Neu5Ac(a2-3)GalNAc(b1-4)GlcNAc
Procedure, shortened: as §1

[26] = target: Neu5Ac(a2-3)[GalNAc(b1-4)]Gal(b1-4)Glc
Procedure, shortened: as §1

[27] = target: Neu5Ac(a2-3)[GalNAc(b1-4)]Gal(b1-4)GlcNAc
Procedure, shortened: as §1

[28] = target: Neu5Ac(a2-3)[GalNAc(b1-4)]Gal(b1-4)GlcNAc(b1-3)GalNAc
Procedure, shortened: as §1

[29] = target: Neu5Ac(a2-3)[Neu5Ac(a2-6)]GalNAc
Procedure, shortened: as §1

[30] = target: Neu5Ac(a2-6)Gal
Procedure, shortened: as §1

[31] = target: Neu5Ac(a2-6)Gal(b1-3)GlcNAc(b1-3)[Gal(b1-4)GlcNAc(b1-6)]Gal(b1-4)Glc
Procedure, shortened: as §1

[32] = target: Neu5Ac(a2-6)Gal(b1-4)Glc
Procedure, shortened: as §1

[33] = target: Neu5Ac(a2-6)Gal(b1-4)GlcNAc
Procedure, shortened: as §1

[34] = target: Neu5Ac(a2-6)Gal(b1-4)GlcNAc(b1-2)Man
Procedure, shortened: as §1

[35] = target: Neu5Ac(a2-6)Gal(b1-4)GlcNAc(b1-2)Man(a1-3)Man(b1-4)GlcNAc(b1-4)GlcNAc
Procedure, shortened: as §1

[36] = target: Neu5Ac(a2-6)Gal(b1-4)GlcNAc(b1-2)Man(a1-3)[Gal(b1-4)GlcNAc(b1-2)Man(a1-6)]Man(b1-4)GlcNAc(b1-4)GlcNAc
Procedure, shortened: as §1

[37] = target: Neu5Ac(a2-6)Gal(b1-4)GlcNAc(b1-2)Man(a1-3)[GlcNAc(b1-2)Man(a1-6)]Man(b1-4)GlcNAc(b1-4)GlcNAc
Procedure, shortened: as §1

[38] = target: Neu5Ac(a2-6)Gal(b1-4)GlcNAc(b1-2)Man(a1-3)[GlcNAc(b1-4)][Neu5Ac(a2-6)Gal(b1-4)GlcNAc(b1-2)Man(a1-6)]Man(b1-4)GlcNAc(b1-4)GlcNAc
Procedure, shortened: as §1

B1: OGAN (protein)
chain: MVQKESQATLEERESELSSNPAASAGASLEPPAAPAPGEDNPAGAGGAAVAGAAGGARRFLCGVVEGFYGRPWVMEQRKELFRRLQKWELNTYLYAPKDDYKHRMFWREMYSVEEAEQLMTLISAAREYEIEFIYAISPGLDITFSNPKEVSTLKRKLDQVSQFGCRSFALLFNDIDHNMCAADKEVFSSFAHAQVSITNEIYQYLGEPETFLFCPTEYCGTFCYPNVSQSPYLRTVGEKLLPGIEVLWTGPKVVSKEIPVESIEEVSKIIKRAPVIWDNIHANDYDQKRLFLGPYKGRSTELIPRLKGVLTNPNCEFEANYVAIHTLATWYKSNMNGVRKDVVMTDSEDSTVSIQIKLENEGSDEDIETDVLYSPQMALKLALTEWLQEFGVPHQY
glycan array binding signal (z-score) [1]: -0.009
glycan array binding signal (z-score) [2]: -0.024
glycan array binding signal (z-score) [3]: -0.071
glycan array binding signal (z-score) [4]: -0.021
glycan array binding signal (z-score) [5]: -0.092
glycan array binding signal (z-score) [6]: 0.037
glycan array binding signal (z-score) [7]: -0.082
glycan array binding signal (z-score) [8]: -0.031
glycan array binding signal (z-score) [9]: -0.091
glycan array binding signal (z-score) [10]: -0.04
glycan array binding signal (z-score) [11]: -0.067
glycan array binding signal (z-score) [12]: -0.004
glycan array binding signal (z-score) [13]: -0.081
glycan array binding signal (z-score) [14]: -0.067
glycan array binding signal (z-score) [15]: -0.094
glycan array binding signal (z-score) [16]: 0.019
glycan array binding signal (z-score) [17]: -0.007
glycan array binding signal (z-score) [18]: -0.016
glycan array binding signal (z-score) [19]: -0.035
glycan array binding signal (z-score) [20]: -0.037
glycan array binding signal (z-score) [21]: -0.069
glycan array binding signal (z-score) [22]: -0.067
glycan array binding signal (z-score) [23]: -0.039
glycan array binding signal (z-score) [24]: -0.085
glycan array binding signal (z-score) [25]: -0.08
glycan array binding signal (z-score) [26]: -0.022
glycan array binding signal (z-score) [27]: -0.045
glycan array binding signal (z-score) [28]: -0.039
glycan array binding signal (z-score) [29]: -0.068
glycan array binding signal (z-score) [30]: -0.049
glycan array binding signal (z-score) [31]: -0.101
glycan array binding signal (z-score) [32]: -0.036
glycan array binding signal (z-score) [33]: -0.059
glycan array binding signal (z-score) [34]: -0.061
glycan array binding signal (z-score) [35]: -0.053
glycan array binding signal (z-score) [36]: -0.055
glycan array binding signal (z-score) [37]: -0.08
glycan array binding signal (z-score) [38]: -0.034

Source: the supplement of paper PMC8728848
